In PubChem BioAssay AID1508623 (National Center for Advancing Translational Sciences (NCATS), 2021):
Screen size: about 48,000 compounds; about 450 (0.94%) were called active. Another 19% or so got no clear call; they are omitted. Calls follow the shape of the dose curve; as a rule, active = well fitted inhibition curve with a large enough effect; inconclusive = small, poorly fitted or top-dose-only effect; inactive = no such curve, though single readings can be large or run the other way. This is one part of the list.

assay: Primary qHTS for Identification of Small Molecule Inhibitors of Huntingtin Promoter Activity; details: HEK293 HTT promoter firefly luciferase reporter (activity 0% = vehicle and -100% = no light), 24 h; series mostly up to 57.5 µM; activity change, negative = inhibition: at the top concentration; also: nearly all actives have a fitted effect of over 50% in size
Outline: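 HEK293 cells carrying firefly luciferase reporters were seeded at 2,500 per well in Opti-MEM and cultured for 24 h. They were then treated with compounds at up to 57.5 uM final for 24 h at 37 degrees C before Dual-Glo luminescence readout.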

Activity change, negative = inhibition, inactive:
CCCCC(=O)Nc1nnc(S(=O)(=O)N(C)Cc2ccccc2)s1 -13.4%
CCSc1nnc2c(n1)OC(c1ccc(OC)c(OC)c1)N(C(C)=O)c1ccccc1-2 (stereo not drawn) -16.4%
Cc1cccc(N(C)S(=O)(=O)c2cc3[nH]c(=O)c(=O)[nH]c3cc2C)c1 0.117%
NS(=O)(=O)c1cc2c(cc1Cl)NCNS2(=O)=O
COc1ccc(Cl)cc1NC(=O)CSc1ccc2nnc(CCNS(=O)(=O)c3ccccc3)n2n1 -13%
CCOc1ccc(S(=O)(=O)Nc2ccc3oc4c(c3c2)CC(C)CC4)cc1 (stereo not drawn) -17.6%
COc1ccccc1CNC(=O)COCc1cc(-c2ccc3c(c2)OCO3)on1 -19.9%
COc1ccc(/C=C(\C#N)c2nc3ccccc3c(=O)[nH]2)cc1OC -21%
O=C(COc1ccc(F)cc1)OCc1cc(=O)n2nc(-c3cccs3)sc2n1 -18.3%
COc1cccc(CNS(=O)(=O)c2c(C(=O)N3CCC(C)CC3)c(C)n(C)c2C)c1 -20%
COc1cc(NS(=O)(=O)c2c(C)nc3sc(C)c(C)n3c2=O)cc(OC)c1 -14.1%
CCOc1ccccc1CNC(=O)Cn1nc(N2CCN(c3ccccc3)CC2)ccc1=O 3.13%
COc1ccc(C)c2sc(NC(=O)c3ccc(S(=O)(=O)N4CCCC4)cc3)nc12 -2.07%
NC(N)=N/N=C/c1c(Cl)cccc1Cl -2.87%
Cn1nnnc1SCCCNCc1cccc(OCc2ccccc2)c1 -14.6%
O=C(NCc1ccc(Cl)cc1)NC1COc2ccccc2C1 (stereo not drawn) -1.4%
CC1CCN(S(=O)(=O)c2ccc3c(c2)N(CC(=O)NCC(C)c2ccccc2)C(=O)CO3)CC1 (stereo not drawn) -15.7%
Cc1c(C(=O)OCc2ccccc2)[nH]c2c1C(=O)CC(c1ccc(Cl)cc1)C2 (stereo not drawn) -18.7%
O=C(NCc1ccco1)c1ccc(Cn2c(SCc3ccccc3F)nc3cccnc32)cc1 -24.1%
CN(C)CCC=C1c2ccccc2C=Cc2ccccc21
O=C1c2cccc(O)c2C(=O)c2c(O)cc(CO)cc21 12.6%
CCN1CCN(c2ncnc3c2cnn3-c2cccc(C)c2)CC1 62.2%
O=C(CSc1ncccc1C(=O)Oc1ccccc1Cl)Nc1ccccc1Cl 6.65%
CN(C)c1ccc(CNC(=O)C2COc3ccccc3C2)cc1 (stereo not drawn) 46%
O=C(NC1CCCCC1)c1ccc2c(c1)N(Cc1ccccc1Cl)C(=O)c1ccccc1S2 -2.2%
CN(C)CCc1c[nH]c2ccc(C[C@H]3COC(=O)N3)cc12
COc1ccc(CCNC(=O)Cn2cc(S(=O)(=O)Cc3ccc(F)cc3)c3ccccc32)cc1OC -24%
CCOc1ccc(C(=O)c2oc3ccccc3c2NC(=O)c2cc(-c3ccc(C)cc3)on2)cc1 -3.55%
